# Experimental data published in the supplement of paper PMC8728848.
# The other results are listed elsewhere or left out.
# B1: LBL-152 (Laetiporus bicolor), B0D650 (protein)
# chain: MSNEYNPPLGIAFRLCGLASDRVLFSRVSPSPEVFHHPKSEVYPDQWFVAIPGSGQNAGCYAIKSKNTGKVLFSRMSPDPRVGHIDGDGKYPDNWFKFEAGSGKYAGYFRLRAVASDTVLVSRTSTGTDTQVINYPATSAKYDDQYFTILFDHHHHHH
# What was measured:
# Assay in all cases: glycan array binding signal (z-score within array); higher = stronger binding
# Conditions in all cases: glycan notation: IUPAC condensed, linker removed
# [1] = target: Gal(a1-6)Glc
# Procedure, shortened: (§1)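 Glycan array data were curated from 3228 arrays in the Consortium for Functional Glycomics database and kept only where the protein sequence was available. Glycan names were converted to IUPAC-condensed notation, and columns mapping to the same glycan were averaged. The binding signal is a within-array Z-score, averaged across arrays of the same protein sequence at different concentrations or buffers and across linkers. Negative Z-scores can be read as non-binding.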
# [2] = target: Gal(b1-2)Gal
# Procedure, shortened: as §1
# [3] = target: Gal(b1-3)Gal
# Procedure, shortened: as §1
# [4] = target: Gal(b1-3)Gal(b1-4)GlcNAc
# Procedure, shortened: as §1
# [5] = target: Gal(b1-3)GalNAc
# Procedure, shortened: as §1
# [6] = target: Gal(b1-3)GalNAc(a1-3)[Fuc(a1-2)]Gal(b1-4)Glc
# Procedure, shortened: as §1
# [7] = target: Gal(b1-3)GalNAc(a1-3)[Fuc(a1-2)]Gal(b1-4)GlcNAc
# Procedure, shortened: as §1
# [8] = target: Gal(b1-3)GalNAc(b1-3)Gal
# Procedure, shortened: as §1
# [9] = target: Gal(b1-3)GalNAc(b1-3)Gal(a1-4)Gal(b1-4)Glc
# Procedure, shortened: as §1
# [10] = target: Gal(b1-3)GalNAc(b1-4)Gal(b1-4)Glc
# Procedure, shortened: as §1
# [11] = target: Gal(b1-3)GalNAc(b1-4)[Neu5Ac(a2-3)]Gal(b1-4)Glc
# Procedure, shortened: as §1
# [12] = target: Gal(b1-3)GlcNAc
# Procedure, shortened: as §1
# [13] = target: Gal(b1-3)GlcNAc(a1-3)Gal(b1-4)GlcNAc
# Procedure, shortened: as §1
# [14] = target: Gal(b1-3)GlcNAc(a1-6)Gal(b1-4)GlcNAc
# Procedure, shortened: as §1
# [15] = target: Gal(b1-3)GlcNAc(b1-2)Man
# Procedure, shortened: as §1
# [16] = target: Gal(b1-3)GlcNAc(b1-2)Man(a1-3)[Gal(b1-3)GlcNAc(b1-2)Man(a1-6)]Man(b1-4)GlcNAc(b1-4)GlcNAc
# Procedure, shortened: as §1
# [17] = target: Gal(b1-3)GlcNAc(b1-2)Man(a1-3)[Gal(b1-3)GlcNAc(b1-2)Man(a1-6)]Man(b1-4)GlcNAc(b1-4)[Fuc(a1-6)]GlcNAc
# Procedure, shortened: as §1
# [18] = target: Gal(b1-3)GlcNAc(b1-2)Man(a1-3)[GlcNAc(b1-4)][Gal(b1-3)GlcNAc(b1-2)Man(a1-6)]Man(b1-4)GlcNAc(b1-4)GlcNAc
# Procedure, shortened: as §1
# [19] = target: Gal(b1-3)GlcNAc(b1-2)[Gal(b1-3)GlcNAc(b1-6)]Man(a1-6)[Gal(b1-3)GlcNAc(b1-2)Man(a1-3)]Man(b1-4)GlcNAc(b1-4)GlcNAc
# Procedure, shortened: as §1
# [20] = target: Gal(b1-3)GlcNAc(b1-3)Gal(b1-3)GlcNAc
# Procedure, shortened: as §1
# [21] = target: Gal(b1-3)GlcNAc(b1-3)Gal(b1-4)Glc
# Procedure, shortened: as §1
# [22] = target: Gal(b1-3)GlcNAc(b1-3)Gal(b1-4)GlcNAc
# Procedure, shortened: as §1
# [23] = target: Gal(b1-3)GlcNAc(b1-3)Gal(b1-4)GlcNAc(b1-2)Man(a1-3)[Gal(b1-3)GlcNAc(b1-3)Gal(b1-4)GlcNAc(b1-2)Man(a1-6)]Man(b1-4)GlcNAc(b1-4)GlcNAc
# Procedure, shortened: as §1
# [24] = target: Gal(b1-3)GlcNAc(b1-3)Gal(b1-4)GlcNAc(b1-2)[Gal(b1-3)GlcNAc(b1-3)Gal(b1-4)GlcNAc(b1-6)]Man(a1-6)[Gal(b1-3)GlcNAc(b1-3)Gal(b1-4)GlcNAc(b1-2)Man(a1-3)]Man(b1-4)GlcNAc(b1-4)[Fuc(a1-6)]GlcNAc
# Procedure, shortened: as §1
# [25] = target: Gal(b1-3)GlcNAc(b1-3)Gal(b1-4)GlcNAc(b1-3)Gal(b1-4)GlcNAc(b1-2)[Gal(b1-3)GlcNAc(b1-3)Gal(b1-4)GlcNAc(b1-3)Gal(b1-4)GlcNAc(b1-6)]Man(a1-6)[Gal(b1-3)GlcNAc(b1-3)Gal(b1-4)GlcNAc(b1-3)Gal(b1-4)GlcNAc(b1-2)Man(a1-3)]Man(b1-4)GlcNAc(b1-4)[Fuc(a1-6)]GlcNAc
# Procedure, shortened: as §1
# [26] = target: Gal(b1-3)GlcNAc(b1-3)Gal(b1-4)GlcNAc(b1-6)[Gal(b1-3)GlcNAc(b1-3)]Gal(b1-4)Glc
# Procedure, shortened: as §1
# [27] = target: Gal(b1-3)GlcNAc(b1-3)Gal(b1-4)[Fuc(a1-3)]GlcNAc
# Procedure, shortened: as §1
# [28] = target: Gal(b1-3)GlcNAc(b1-3)Gal(b1-4)[Fuc(a1-3)]GlcNAc(b1-6)[Gal(b1-3)GlcNAc(b1-3)]Gal(b1-4)Glc
# Procedure, shortened: as §1
# [29] = target: Gal(b1-3)GlcNAc(b1-3)GalNAc
# Procedure, shortened: as §1
# [30] = target: Gal(b1-3)GlcNAc(b1-6)Gal(b1-4)GlcNAc
# Procedure, shortened: as §1
# [31] = target: Gal(b1-3)GlcNAc(b1-6)GalNAc
# Procedure, shortened: as §1
# [32] = target: Gal(b1-3)GlcNAc(b1-6)[Gal(b1-3)]GalNAc
# Procedure, shortened: as §1
# [33] = target: Gal(b1-3)GlcNAc6S
# Procedure, shortened: as §1
# [34] = target: Gal(b1-3)[Fuc(a1-4)]GlcNAc
# Procedure, shortened: as §1
# [35] = target: Gal(b1-3)[Fuc(a1-4)]GlcNAc(b1-2)Man
# Procedure, shortened: as §1
# [36] = target: Gal(b1-3)[Fuc(a1-4)]GlcNAc(b1-2)Man(a1-3)[Gal(b1-3)[Fuc(a1-4)]GlcNAc(b1-2)Man(a1-6)]Man(b1-4)GlcNAc(b1-4)[Fuc(a1-6)]GlcNAc
# Procedure, shortened: as §1
# [37] = target: Gal(b1-3)[Fuc(a1-4)]GlcNAc(b1-3)Gal(b1-3)[Fuc(a1-4)]GlcNAc
# Procedure, shortened: as §1
# [38] = target: Gal(b1-3)[Fuc(a1-4)]GlcNAc(b1-3)Gal(b1-4)[Fuc(a1-3)]GlcNAc
# Procedure, shortened: as §1
# [39] = target: Gal(b1-3)[Fuc(a1-4)]GlcNAc(b1-6)GalNAc
# Procedure, shortened: as §1
# [40] = target: Gal(b1-3)[GlcNAc(b1-6)]GalNAc
# Procedure, shortened: as §1
# [41] = target: Gal(b1-3)[Neu5Ac(a2-6)]GalNAc
# Procedure, shortened: as §1
# [42] = target: Gal(b1-3)[Neu5Ac(a2-6)]GlcNAc(b1-4)Gal(b1-4)Glc
# Procedure, shortened: as §1
# [43] = target: Gal(b1-3)[Neu5Ac(b2-6)]GalNAc
# Procedure, shortened: as §1
# [44] = target: Gal(b1-4)Gal
# Procedure, shortened: as §1
# [45] = target: Gal(b1-4)GalNAc(a1-3)[Fuc(a1-2)]Gal(b1-4)GlcNAc
# Procedure, shortened: as §1
binder,measurement,setting,value
B1,glycan array binding signal (z-score),[1],-0.163
same,glycan array binding signal (z-score),[2],-0.147
same,glycan array binding signal (z-score),[3],-0.153
same,glycan array binding signal (z-score),[4],-0.158
same,glycan array binding signal (z-score),[5],-0.156
same,glycan array binding signal (z-score),[6],-0.149
same,glycan array binding signal (z-score),[7],-0.153
same,glycan array binding signal (z-score),[8],-0.16
same,glycan array binding signal (z-score),[9],-0.158
same,glycan array binding signal (z-score),[10],-0.143
same,glycan array binding signal (z-score),[11],-0.146
same,glycan array binding signal (z-score),[12],-0.147
same,glycan array binding signal (z-score),[13],-0.14
same,glycan array binding signal (z-score),[14],-0.157
same,glycan array binding signal (z-score),[15],-0.152
same,glycan array binding signal (z-score),[16],-0.154
same,glycan array binding signal (z-score),[17],-0.153
same,glycan array binding signal (z-score),[18],-0.154
same,glycan array binding signal (z-score),[19],-0.148
same,glycan array binding signal (z-score),[20],-0.154
same,glycan array binding signal (z-score),[21],-0.155
same,glycan array binding signal (z-score),[22],-0.155
same,glycan array binding signal (z-score),[23],-0.136
same,glycan array binding signal (z-score),[24],-0.14
same,glycan array binding signal (z-score),[25],-0.044
same,glycan array binding signal (z-score),[26],-0.15
same,glycan array binding signal (z-score),[27],-0.149
same,glycan array binding signal (z-score),[28],-0.155
same,glycan array binding signal (z-score),[29],-0.152
same,glycan array binding signal (z-score),[30],-0.156
same,glycan array binding signal (z-score),[31],-0.151
same,glycan array binding signal (z-score),[32],-0.155
same,glycan array binding signal (z-score),[33],-0.151
same,glycan array binding signal (z-score),[34],-0.152
same,glycan array binding signal (z-score),[35],-0.159
same,glycan array binding signal (z-score),[36],-0.15
same,glycan array binding signal (z-score),[37],-0.16
same,glycan array binding signal (z-score),[38],-0.154
same,glycan array binding signal (z-score),[39],-0.157
same,glycan array binding signal (z-score),[40],-0.147
same,glycan array binding signal (z-score),[41],-0.156
same,glycan array binding signal (z-score),[42],-0.155
same,glycan array binding signal (z-score),[43],-0.154
same,glycan array binding signal (z-score),[44],-0.161
same,glycan array binding signal (z-score),[45],-0.163
